Measured values taken from US20190361007A1 (Novo Nordisk, published 2019).

B1: A14E, B16E, B25H, B29K(N(eps)eicosanedioyl-gGlu-2×OEG), desB30 human insulin (ligand)
chain 1: not shown
chain 2: FVNQHLCGSHLVEALELVCGERGFHYTPK
modifications: B29K(N(eps)eicosanedioyl-gGlu-2×OEG): Lys B29 acylated on the epsilon amino group
B2: A14E, B25H, B29K(N^εOctadecanedioyl-gGlu-OEG-OEG), desB30 human insulin (ligand)
chain 1: not shown
chain 2: FVNQHLCGSHLVEALYLVCGERGFHYTPK
modifications: B29K(N^εOctadecanedioyl-gGlu-OEG-OEG): Lys B29 acylated on the epsilon amino group

Legend:
Assay in all cases: cell-based or functional assay
[1] = biological target: human insulin receptor (HIR, +exon 11) (human)
[2] = biological target: human insulin receptor (HIR, +exon 11) (human); remark: listed apart in the source
[3] = biological target: human insulin receptor (HIR, +exon 11) (human); remark: listed apart in the source

Row | Binder | pAkt assay, EC50(nM), DP (liquid formulation) [1] | pAkt assay, EC50(nM), DS (drug substance) [1] | pAkt assay, EC50 (nM) [2] | pAkt assay, Relative Potency against human insulin [2] | pAkt assay, Relative Potency against human insulin (percent) [2] | pAkt assay, EC50 (nM), DP (2700 nmol tablet) [3]
1 | B1 | 591 nM | 619 nM | 522 nM | 0.0006 | 0.06% | 
2 | B2 |  |  |  | 0.0064 | 0.64% | 47 nM
